The whole screen tested about 310,000 compounds, of which about 14,000 (4.5%) showed an effect of 50% or more. Effects have a minus sign here. The list shows a part of the results.
target: human ether-à-go-go-related gene (hERG) potassium channel (human, UniProt Q12809); test: primary screen, population patch clamp on CHO cells stably expressing hERG
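Also: peak tail current of the secondary pulse compared with the same well before compound.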

Sequence of human ether-à-go-go-related gene (hERG) potassium channel (Q12809 whole entry, looked up): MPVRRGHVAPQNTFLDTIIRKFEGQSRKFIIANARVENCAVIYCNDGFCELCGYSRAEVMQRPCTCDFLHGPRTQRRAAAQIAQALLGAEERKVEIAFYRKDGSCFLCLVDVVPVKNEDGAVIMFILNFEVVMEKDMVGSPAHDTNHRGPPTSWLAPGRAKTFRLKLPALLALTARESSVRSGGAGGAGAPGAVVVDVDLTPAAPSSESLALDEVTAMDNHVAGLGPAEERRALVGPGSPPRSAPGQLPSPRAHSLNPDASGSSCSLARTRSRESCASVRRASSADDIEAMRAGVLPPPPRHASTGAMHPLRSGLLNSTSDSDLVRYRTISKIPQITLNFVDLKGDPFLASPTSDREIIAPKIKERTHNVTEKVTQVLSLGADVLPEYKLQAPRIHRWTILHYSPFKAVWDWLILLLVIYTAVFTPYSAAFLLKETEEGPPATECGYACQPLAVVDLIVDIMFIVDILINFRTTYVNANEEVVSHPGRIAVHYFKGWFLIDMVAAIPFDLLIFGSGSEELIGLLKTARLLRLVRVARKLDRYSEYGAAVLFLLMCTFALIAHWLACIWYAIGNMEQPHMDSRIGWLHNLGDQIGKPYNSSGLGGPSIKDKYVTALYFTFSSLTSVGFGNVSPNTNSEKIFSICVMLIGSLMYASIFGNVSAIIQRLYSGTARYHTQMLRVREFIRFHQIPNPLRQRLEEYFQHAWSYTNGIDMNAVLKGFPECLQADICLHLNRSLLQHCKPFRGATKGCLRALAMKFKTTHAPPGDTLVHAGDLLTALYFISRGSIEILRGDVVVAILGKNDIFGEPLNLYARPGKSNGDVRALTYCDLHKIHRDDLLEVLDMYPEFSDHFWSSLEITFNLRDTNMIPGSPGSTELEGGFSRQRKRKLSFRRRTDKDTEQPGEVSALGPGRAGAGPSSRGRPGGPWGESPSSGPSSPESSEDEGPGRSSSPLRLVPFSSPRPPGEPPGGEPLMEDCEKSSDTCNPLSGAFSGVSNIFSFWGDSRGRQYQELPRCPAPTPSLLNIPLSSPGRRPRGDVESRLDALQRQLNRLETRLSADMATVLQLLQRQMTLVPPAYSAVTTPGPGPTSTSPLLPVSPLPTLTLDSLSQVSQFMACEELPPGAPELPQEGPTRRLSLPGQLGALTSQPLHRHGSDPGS

Row | SMILES | hERG current change (%, negative = inhibition) at 10uM [%]
1 | CC1CCC(NS(=O)(=O)c2ccc3c(c2)CC(=O)N3)CC1 (centres unmarked) | 18.2
2 | CCCCNC(=S)N(C)/N=C/c1ccccc1C(=O)O | -3.88
3 | O=C(Oc1ccccc1)N1CCN(C(=O)c2ccco2)CC1 | 13.5
4 | O=C(Nc1ccon1)Nc1ccc(Cl)cc1Cl | 23.7
5 | O=C(O)CCSc1nc(C(F)(F)F)cc(=O)n1-c1ccccc1 | 15
6 | O=C(Nc1cccc(Cl)c1N1CCCC1)c1ccc([N+](=O)[O-])o1 | 9.6
7 | c1cc2c(cc1-n1cnnn1)OCO2 | 11.8
8 | CCO[C@@H]1OC(C(=O)N2CCOCC2)=C[C@H](C(C)(C)C)[C@H]1CCCO | 24.4
9 | O=C(Nc1ccc(C(=O)NN2C(=O)c3ccccc3C2=O)cc1)c1ccccc1 | -3.28
10 | CSc1nc2ccc(NC(=O)c3ccc(Cl)s3)cc2s1 | 15.5
11 | CC(=O)c1ccc(OCCN2CCOCC2)cc1.O=C(O)C(=O)O | 1.35
12 | CCN1CCN(C(=S)c2ccc(OC)cc2)CC1 | -64.8
13 | Cc1[nH+]csc1CCOC(=O)c1ccc([N+](=O)[O-])cc1.[Cl-] | -35.4
14 | N#Cc1c(SCC(=O)N2CCOCC2)nsc1SCC(=O)N1CCOCC1 | 6.03
15 | CCOC(=O)c1ccc(NC(=S)Nc2cc(C)cc(C)n2)cc1 | 0.993
16 | CCn1nc(NS(=O)(=O)c2ccc(F)cc2)c2cc3cccc(C)c3nc21 | 15
17 | CCC(C)N(C(=O)CSc1nnc(COc2ccccc2F)n1N)C1CCS(=O)(=O)C1 (centres unmarked) | 4.4
18 | CCOCC(=O)Nc1cc(S(=O)(=O)N2CCOCC2)ccc1N1CCCCC1 | 22
19 | Cc1ccc[n+](-c2nc3ccccc3nc2[N-]S(=O)(=O)c2ccccc2)c1 | 20.1
20 | Cc1cc(=O)oc2cc(OCC(=O)OCC(=O)NCc3ccc4c(c3)OCO4)ccc12 | 5.13
21 | COC(=O)C(Cc1ccccc1)NC(=O)CCNC(=O)c1ccco1 (centres unmarked) | 20.4
22 | CCCn1c(SCC(=O)NCCc2ccccc2)nnc1-c1cccnc1 | -12.1
23 | COc1ccccc1-c1nnc(NC(=O)c2cccc(N3C(=O)CCC3=O)c2)o1 | 7.53

Row | SMILES | hERG current change (%, negative = inhibition) at 10uM [%]
24 | Cc1cccc(NC(N)=S)c1 | -26.8
25 | Cc1cc(C)nc(N2CCCC(C(=O)Nc3ccc4nc(C)c(C)nc4c3)C2)n1 (centres unmarked) | 9.96
26 | O=c1[nH]c(=O)n(Cc2ccccc2Cl)c(O)c1C=Nc1ccc(F)cc1 | -3.68
27 | CCOC(=O)c1c(C)nc2c3ccccc3ccn12 | -10.1
28 | Brc1ccccc1-c1nnc(CSc2nncn2-c2ccccc2)o1 | -18.5
29 | CC1CCCN(C(=O)C2CCN(CC(C)c3ccccc3)CC2)C1.O=C(O)C(=O)O (centres unmarked) | 8.12
30 | Cc1ccccc1N1CCN(CC(=O)Nc2ccccc2C(=O)NC2CC2)CC1 | -62.4
31 | CCC1(CC)C(=O)Nc2ccccc21 | 22.3
32 | NC(=O)c1ccsc1NC(=O)COc1ccccc1 | -8.47
33 | Cc1ccc(NC(=O)c2ccccc2Br)cc1S(=O)(=O)N(C)C | -1.84
34 | COc1ccccc1NC(=O)c1ccc(S(=O)(=O)N2CCCC(C)C2)cc1 (centres unmarked) | 11.9
35 | C[C@@H]1CC[C@]2(O[C@@H](CCO)C[C@H](O)[C@H]2O)O1 | 11.1
36 | CC(C)CNC(=O)c1cccc(NC(=O)C(C)Oc2ccccc2)c1 (centres unmarked) | -18.9
37 | CC(C)C(NS(=O)(=O)c1cccc(C(F)(F)F)c1)C(=O)NCc1cccs1 (centres unmarked) | -16
38 | CC1CCc2nc(/C(C#N)=C/c3cccnc3)sc2C1 (centres unmarked) | 7.45
39 | CCOC(=O)c1ccc2c(c1)nc(SCC(=O)N1CCOCC1)n2CC | 18.9
40 | CCCC(=O)OCC(=O)Nc1ccccc1C#N | 18.4
41 | Cc1nn(CC(C)C(=O)N2CCN(S(=O)(=O)c3ccc(Cl)cc3)CC2)c(C)c1C (centres unmarked) | -12.4
42 | O=C1N/C(=C/c2ccc(N3CCCC3)cc2)C(=O)N1c1ccccc1 | 4.59
43 | CC1=C(C)C(O)N(Cc2ccccc2)C1=O (centres unmarked) | 22.6
44 | CC(=O)Nc1ccc(O)c(-c2nc3ccccc3s2)c1 | 11
45 | CC1CC(C)(C)N2C(=O)C(=C(C#N)C#N)c3cccc1c32 (centres unmarked) | 16.3
46 | O=S(=O)(c1cnc[nH]1)N1CCN(C(c2ccc(F)cc2)c2ccc(F)cc2)CC1 | -6.49

Row | SMILES | hERG current change (%, negative = inhibition) at 10uM [%]
47 | COc1ccc(-c2cc(C(F)(F)F)c3c(n2)sc2c(O)cc(=O)[nH]c23)c(OC)c1 | 0.949
48 | Cc1ccc(Cn2ccc(NC(=O)c3nc4ncccn4n3)n2)cc1 | -2.44
49 | COc1ccc2[nH]c(C(=O)O)c(NS(=O)(=O)c3ccc(C)c(C)c3)c2c1 | -18.1
50 | CCc1nc2ccccc2c(C(=O)OC2CCCCC2=O)c1C (centres unmarked) | 15.5
51 | CCOC(=O)c1ccccc1NC(=O)C1CC(=O)N(C(C)(C)C)C1 (centres unmarked) | 10.7
52 | O=C(N/N=C/c1ccc(N2CCOCC2)o1)c1cccc(C(F)(F)F)c1 | -28.5
53 | COc1cccc(OC)c1C(=O)Nc1nnc(C(C)C)s1 | -5.56
54 | CC(C)Cn1c(-c2ccccc2)nc2ccccc2c1=O | -4.64
55 | COc1cccc(C(=O)Nc2cc(NC(=O)c3ccco3)ccc2OC)c1 | -5.19
56 | Cc1oc(/C=N/NC(=O)CC2(C)OCCO2)cc1Br | 6.93
57 | CCOC(=O)N1CCC(NC(=O)c2ccc(CS(=O)(=O)c3ccccc3C)o2)CC1 | -26.7
58 | O=C(NCC1CCN(Cc2cccc(Cl)c2)CC1)Nc1ccc(Cl)cc1 | -76.2
59 | COc1ccc(C(NC(=O)CNC(C)=O)C(=O)Nc2ccc3c(c2)OCCO3)cc1 (centres unmarked) | 10.2
60 | Nn1c(SCC(=O)N2CCOCC2)nnc1-c1cccnc1 | 29.6
61 | CCCn1c(N)c(C(c2ccc(OC)cc2)N2CCN(c3ccccc3)CC2)c(=O)[nH]c1=O (centres unmarked) | -27.2
62 | CCN(CC)CCNC(=S)Nc1ccc2nc3n(c(=O)c2c1)CCCCC3 | 0.152
63 | CC1CCN(c2c(NCc3ccc(C(=O)N4c5ccccc5CC4C)cc3)c(=O)c2=O)CC1 (centres unmarked) | -13
64 | CCOc1cc(CNCCc2ccc(S(N)(=O)=O)cc2)cc(Cl)c1OCc1ccccc1.Cl | -70.7
65 | O=[N+]([O-])c1ccc(C(=S)N2CCN(Cc3ccccc3)CC2)cc1 | -57.6
66 | CCOC(=O)CN(C(=O)CSc1nnc(CNc2ccc(C)cc2C)o1)c1ccccc1 | -5.41
67 | Cc1cc(C)nc(NS(=O)(=O)c2ccc(NC(=S)NC(=O)c3cccnc3)cc2)n1 | 18
68 | Cc1cccn2c(=O)c(/C=C(\C#N)C(=O)NCc3ccco3)c(N3CCC(C(N)=O)CC3)nc12 | -43
69 | Cc1c(Cl)cccc1NC(=O)NCc1cccnc1 | 22.5

Row | SMILES | hERG current change (%, negative = inhibition) at 10uM [%]
70 | CCc1ccc(NC(=O)c2cc(CC(C)C)on2)cc1 | 6.19
71 | CN(C)S(=O)(=O)c1ccc(N2CCCC2)c(C(=O)NCC2CCCO2)c1 (centres unmarked) | 23.2
72 | CCOC(=O)c1sc(NC(=O)CN2C(=O)C3CC=CCC3C2=O)nc1C (centres unmarked) | 8.12
73 | Cc1ccc(S(=O)(=O)N2CCN(CC(=O)N/N=C/c3cc([N+](=O)[O-])ccc3Cl)CC2)cc1 | -32.3
74 | COc1cccc(NC(=O)c2cc(-c3ccco3)nc3ccccc23)c1 | 12.2
75 | COC(=O)c1ccccc1NC(=S)N1CCC(N2CCCCC2)CC1 | -12.2
76 | Cc1ccc(-n2c(Cn3nc(C(F)F)cc3C(F)F)n[nH]c2=S)cc1 | 10.7
77 | CCN1CCN(C(=O)C2CCC(CNS(=O)(=O)c3ccccc3)CC2)CC1 (centres unmarked) | -8.7
78 | O=C(C1=C[C@@H](c2ccc(C(F)(F)F)cc2)C[C@@H](OCCCCO)O1)N1CCN(Cc2ccccc2)CC1 | -60.6
79 | O=C(NNC(=O)c1ccc([N+](=O)[O-])o1)c1ccccc1 | -6.59
80 | CC1(C)CN(c2cccc(C#N)c2)C1=O | 26.5
81 | CCC(C)C(NS(=O)(=O)c1ccc(C)cc1)C(=O)N1CCOCCOCCOCC1 (centres unmarked) | 8.49
82 | COc1cccc(OC)c1OCCCOc1ccc([N+](=O)[O-])cc1Cl | 24.2
83 | Cc1ccccc1OCCNC(=O)c1ccccc1Sc1ccccc1C#N | -4.06
84 | C=CCNC(=S)N1CCN(CCN=Cc2c(C)[nH]n(-c3ccc([N+](=O)[O-])cc3)c2=O)CC1 | -72.1
85 | CCCCNC(=O)NS(=O)(=O)c1ccc(C(=O)OC(C)C)o1 | 24.2
86 | CC1CCN(CC(=O)Nc2ccc(S(=O)(=O)N3CCCC(C)C3)cc2)CC1 (centres unmarked) | 11.1
87 | Cc1ccc(CSc2nc3c(c(=O)[nH]2)C(c2ccncc2)C2=C(CCCC2=O)N3)cc1 (centres unmarked) | 9.42
88 | CCOc1cc(-c2nc3c(C)cccn3c2NCC2CCCO2)ccc1O.CNC.Cl (centres unmarked) | -43.9
89 | O=C(Nc1ccccc1)c1ccco1 | 15
